Several values for one entry are separate records, joined by “and”; a condition that tells them apart may be missing. Identical values can stand only once. Hit rate of the full screen: of about 410,000 compounds, about 6,400 (1.6%) were called active. Inconclusive means that the source gave no clear call. Such entries were picked first, then a sample of the others. The call rests on the fitted dose curve; in most records, active means well fitted inhibition curve with a large enough effect; inconclusive means small, poorly fitted or top-dose-only effect; inactive means no such curve, though single readings can be large or run the other way. A potency beside an inconclusive call is a rough fit, not a confirmed value.
target: Glucagon-like peptide 1 receptor (Homo sapiens) (UniProt P43220); assay: qHTS of GLP-1 Receptor Inverse Agonists (Inhibition Mode); details: HEK293 GLP-1R CRE-luciferase, luminescence, 24 h, GLP-1R form is constitutively active; activity change, negative = inhibition: at 38.3 µM (top of the series) unless noted; further: nearly all actives have a fitted effect of over 55% in size
Sequence of UniProt P43220 (P43220 whole entry, looked up): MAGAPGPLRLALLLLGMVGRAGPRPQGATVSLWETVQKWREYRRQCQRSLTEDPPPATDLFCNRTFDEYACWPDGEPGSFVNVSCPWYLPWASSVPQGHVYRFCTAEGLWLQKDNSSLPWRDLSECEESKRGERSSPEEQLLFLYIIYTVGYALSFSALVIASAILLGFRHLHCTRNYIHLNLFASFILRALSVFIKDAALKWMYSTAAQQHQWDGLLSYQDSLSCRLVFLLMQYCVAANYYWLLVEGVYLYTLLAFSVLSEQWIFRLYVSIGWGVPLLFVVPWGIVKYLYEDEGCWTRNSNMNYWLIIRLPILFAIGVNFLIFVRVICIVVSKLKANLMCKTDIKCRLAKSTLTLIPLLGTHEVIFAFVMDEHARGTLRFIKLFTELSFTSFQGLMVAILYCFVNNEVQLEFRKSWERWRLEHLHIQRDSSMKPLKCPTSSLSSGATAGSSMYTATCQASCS
In short: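 Constitutively active GLP-1R drives a cAMP-responsive luciferase in stably transfected HEK293 cells; test compounds are added after overnight (12 h) attachment and left 24 hr, and signal loss in luminescence marks inhibition.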
On the % scale 0 is the no-effect control and ±100 the full control effect; potency means the concentration at half of the fitted maximal effect; tags describe the fitted curve by direction and shape.

| SMILES | Potency | activity change, negative = inhibition |
| --- | --- | --- |
| Cc1ccc(C)c(COC(=O)c2cccc(S(=O)(=O)N3CCCC3)c2)c1 | inconclusive: 10 µM [inhibitor, partial curve, poor fit] | – |
| FC(F)(F)c1ccc(C2[C@H]3CN(Cc4cccnc4)[C@H](c4ccccc4)C34CC2(c2cccnc2)C4)cc1 (some centres undefined) | active: 11.2 µM | – |
| COc1ccccc1C(=O)NCCC(=O)Nc1ccc(S(=O)(=O)N2C(C)CCCC2C)cc1 (centres undefined) | inconclusive: 11.2 µM [inhibitor, partial curve, poor fit] | – |
| CCOc1ccc2nc(N3CCC(C(=O)N4CCN(c5ccccn5)CC4)CC3)sc2c1 | inconclusive: 15.8 µM [inhibitor, partial curve, poor fit] | – |
| CC(C)=CC1C(C(=O)NCCOc2ccccc2)C1(C)C (centres undefined) | inconclusive: 10 µM [inhibitor, partial curve, poor fit] | – |
| O=C(c1cc(C2CC2)on1)N1CCCC(N2CCN(c3cccc(C(F)(F)F)c3)CC2)C1 (centres undefined) | inconclusive: 22.4 µM [inhibitor, partial curve, poor fit] | – |
| Fc1cccc(Cl)c1CSc1ccc(-c2cccnc2)nn1 | inconclusive: 11.2 µM [inhibitor, single point] | – |
| CNC[C@@H](CC1CCCCC1)NC[C@H](CC(C)C)NCCc1cccc(C(F)(F)F)c1 | inconclusive: 14.1 µM [inhibitor, partial curve, poor fit] | – |
| COc1ccccc1-c1cc(C(F)(F)F)nc(N2CCN(c3ccccc3)CC2)n1 | inconclusive: 22.4 µM [inhibitor, partial curve, poor fit] | – |
| Cc1ccc(SCC(=O)OC(C)C(=O)N2CCc3ccccc32)cc1 (centres undefined) | inconclusive: 35.5 µM [inhibitor, partial curve, poor fit] | – |
| CCn1cc(CCC(=O)NCc2ccc(F)cc2)c2ccccc21 | inconclusive: 28.2 µM [inhibitor, single point] and inconclusive: 22.4 µM [inhibitor, single point] | – |
| Cc1ccc(SC[C@H](Cc2ccccc2)N2CCN(CC(C)C)CCC2=O)cc1 | inconclusive: 12.6 µM [inhibitor, single point] | – |
| CCN(CC)C(=O)c1cccc(-c2csc(C(C)(O)c3ccc(F)c(F)c3)n2)c1 (centres undefined) | inconclusive: 28.2 µM [inhibitor, single point] | – |
| O=C(O)CCCN1C(=O)C2C3CCC(C3)C2C1=O (centres undefined) | – | inactive: 30.4% |
| C=CCc1ccc(OCC(O)CN2CCN(c3ccccc3)CC2)c(OC)c1 (centres undefined) | inconclusive: 17.8 µM [inhibitor, partial curve, poor fit] | – |
| C[C@@H](NC(=O)c1nc[nH]c1C(=O)N[C@H](C)c1ccccc1)c1ccccc1 | inconclusive: 12.6 µM [inhibitor, single point] | – |
| Cc1cc(C)c(Cn2c(CCNC(=O)c3ccco3)nc3ccccc32)c(C)c1 | inconclusive: 7.94 µM [inhibitor, partial curve, poor fit] | – |
| CS(=O)(=O)c1ccccc1C(=O)N1CCN(S(=O)(=O)c2ccc(C3CCCCC3)cc2)CC1 | active: 10 µM | – |
| CCOc1cccc(/C(O)=C2/C(=O)C(=O)N(CCOC)C2c2ccco2)c1 (centres undefined) | – | inactive: -0.266% |
| OC(c1ccc(F)c(F)c1)c1nc(-c2cccs2)cs1 (centres undefined) | inconclusive: 12.6 µM [inhibitor, single point] | – |
| O=C(NCCc1cnc[nH]1)Nc1cccc(C(F)(F)F)c1 | – | inactive: -9.12% |
| COc1cc(NC(=O)C2=C(C)OCCS2)c(Cl)cc1C(=O)NCCN(C)C | – | inactive: 5.41% |

| SMILES | Potency | activity change, negative = inhibition |
| --- | --- | --- |
| Cc1noc(C)c1COc1ccccc1C(=O)NCCc1ccccc1 | inconclusive: 31.6 µM [inhibitor, single point] | – |
| CCOC(=O)C1(Cc2cccc(F)c2)CCN(Cc2nc(CC)[nH]c2C)CC1 | inconclusive: 28.2 µM [inhibitor, single point] | – |
| CC1CCCN(C(C(=O)Nc2ccc3c(c2)OCO3)c2ccccc2)C1 (centres undefined) | inconclusive: 22.4 µM [inhibitor, single point] | – |
| CCCCCCSc1cccc(-c2nc3ccc(C)cn3c2NCc2ccccc2)c1 | inconclusive: 7.94 µM [inhibitor, partial curve, poor fit] | – |
| COc1ccc(-c2cc3nc(NCCOc4ccccc4)ccn3n2)cc1 | inconclusive: 11.2 µM [inhibitor, single point] | – |
| O=C1N=c2ccccc2=C1c1c(O)n(-c2cccc(F)c2)[nH]c1=O | inconclusive: 1.78 µM [inhibitor, full curve, poor fit] | – |
| CCOc1ccccc1Nc1nc(-c2cccc(Cl)c2)c2c(n1)-c1ccccc1OC2 | – | inactive: 2.39% |
| N#C/C(=C/c1ccc(O)c(O)c1)C(=O)NCc1ccc(Cl)cc1 | inconclusive: 28.2 µM [inhibitor, single point] | – |
| COc1coc(C(O)C[N+](=O)[O-])cc1=O (centres undefined) | inconclusive: 2 µM [inhibitor, full curve, poor fit] | – |
| COc1ccc(CN(C)C(=O)C(Cc2ccccc2)NC(=O)c2ccccc2)c(OC)c1 (centres undefined) | inconclusive: 28.2 µM [inhibitor, single point] | – |
| CN(CCC1CCOCC1)Cc1cn[nH]c1-c1ccc(-c2ccccc2)cc1 | inconclusive: 11.2 µM [inhibitor, single point] | – |
| COc1ccccc1NS(=O)(=O)c1cccc(C(=O)NCC(c2ccco2)N(C)C)c1 (centres undefined) | – | inactive: -7.33% |
| COc1ccc(-c2noc(-c3ccc(NCc4ccco4)c([N+](=O)[O-])c3)n2)cc1 | – | inactive: 12.5% |
| COC(=O)c1ccccc1NC(=S)NC(=O)c1cccc2ccccc12 | – | inactive: 1.47% |
| CCOc1ccc(C(C(=O)NC2CCCC2)N(CCCO)C(=O)c2ccc(-c3ccccc3)[nH]2)cc1 (centres undefined) | active: 12.6 µM | – |
| CCN(CC)CCn1c(=N)n(CC(=O)c2ccc(C)cc2)c2ccccc21 | inconclusive: 11.2 µM [inhibitor, single point] | – |
| Cc1cc(C)c(C#N)c(SCC(=O)OC2CCCCC2)n1 | inconclusive: 28.2 µM [inhibitor, single point] | – |
| Nc1ccc(Cn2ccc3c4c(N)nc(N)nc4ccc32)cc1 | inconclusive: 0.355 µM [inhibitor, full curve, poor fit] | – |
| Cc1ccc(C)c(N2N=C(C(=O)Nc3ccccc3N3CCCC3)CCC2=O)c1 | inconclusive: 11.2 µM [inhibitor, single point] | – |
| Cc1ccccc1-c1nc(CN2CCC(C(=O)NCCCN3CCOCC3)CC2)c(C)o1 | – | inactive: -11.4% |
| CC(C)C(NC(=O)c1ccccc1)C(=O)N1CCN(C/C=C/c2ccccc2)CC1 (centres undefined) | inconclusive: 31.6 µM [inhibitor, single point] | – |
| CC1(C(=O)NCc2ccccc2Br)CCN1Cc1ccccc1OC(F)F (centres undefined) | inconclusive: 15.8 µM [inhibitor, single point] | – |

| SMILES | Potency | activity change, negative = inhibition |
| --- | --- | --- |
| O=C(CNC(=O)C12CC3CC(CC(C3)C1)C2)OCc1ccc(F)cc1Cl | inconclusive: 14.1 µM [inhibitor, single point] | – |
| Cc1[nH]c2ccc(F)cc2c(=O)c1SC(F)(F)C(F)F | inconclusive: 10 µM [inhibitor, single point] | – |
| CC(C)N1C(=O)C(O)(C2COC(C)(C)CC2=O)c2ccccc21 (centres undefined) | – | inactive: 10.8% |
| CN(C)c1ccc(/C=C/C(=O)c2ccc(O)cc2)cc1[N+](=O)[O-] | inconclusive: 10 µM [inhibitor, single point] | – |
| O=C(NCc1ccco1)c1ccc2c(c1)CCO2 | – | inactive: -9.45% |
| CN(C)c1ccc(/C=C/C(=O)c2cccc(Br)c2)cc1 | – | inactive: -3.17% |
| O=C(c1cc(C(=O)N2CCOCC2)c2nc3ccccc3n2c1)c1cc(Cl)cc(Cl)c1O | inconclusive: 7.94 µM [inhibitor, partial curve, poor fit] | – |
| OCCN1CCN(c2nc(-c3ccccc3)nc3c2oc2ccccc23)CC1 | inconclusive: 12.6 µM [inhibitor, single point] | – |
| COc1cccc(C(=O)Nc2cc(C)ccc2NC(=O)COc2ccccc2)c1 | inconclusive: 28.2 µM [inhibitor, single point] | – |
| O=C(Nc1ccc(Br)cn1)c1ccc2ccccc2c1 | – | inactive: 2.22% |
| COc1ccc(NC(=O)c2sc3nc4c(cc3c2N)CN(C(C)C)CC4)c(OC)c1 | – | inactive: 13.4% |
| Cc1ccc(N(CC(=O)N/N=C/c2ccc(OC3CSC3)cc2)S(=O)(=O)c2ccccc2)c(C)c1 | inconclusive: 12.6 µM [inhibitor, single point] | – |
| COc1cc(-c2noc(CSc3nc(-c4ccccc4)cc(=O)[nH]3)n2)cc(OC)c1OC | – | inactive: 18.3% |
| Cc1cccc(C(=O)NCC(c2ccc3c(c2)OCO3)N2CCN(c3ccccc3F)CC2)c1 (centres undefined) | inconclusive: 11.2 µM [inhibitor, single point] | – |
| COc1ccc(OCCN2CCC(C(=O)NC(c3ccc(Cl)cc3)c3ncccc3C)CC2)cc1 (centres undefined) | inconclusive: 8.91 µM [inhibitor, partial curve] | – |
| CCOc1ccc2nc(-c3ccccc3)[nH]c2c1 | inconclusive: 6.31 µM [inhibitor, partial curve, poor fit] | – |
| COc1ccc(S(=O)(=O)c2c(Nc3ccc(C)cc3)sc(C(=O)c3ccc(C)cc3)c2N)cc1 | inconclusive: 10 µM [inhibitor, partial curve] | – |
| NS(=O)(=O)c1ccc(NC(=O)COC(=O)C2(c3ccc(F)cc3)CCCC2)cc1 | inconclusive: 10 µM [inhibitor, partial curve, poor fit] | – |
| COc1ccc(-c2nnc3n2N=C(C)CS3)cc1 | – | inactive: 40.3% |
| O=C(c1ccc2c(c1)OCO2)C1CCCN(Cc2ccc(OC(F)F)cc2)C1 (centres undefined) | inconclusive: 14.1 µM [inhibitor, single point] | – |
